Reference: paper PMC9911399, “Two distinct binding modes provide the RNA-binding protein RbFox with extraordinary sequence specificity”
Substitutions are numbered along the chain they refer to; changes in the protein carry UniProt numbers. The list shows a part of the results.

T1: RBFOX1 RRM RbFoxmut (Fox-RRM*) (Homo sapiens, UniProt Q9NWB1 109-208, R118D;E147R;N151S;E152T)
T1 sequence: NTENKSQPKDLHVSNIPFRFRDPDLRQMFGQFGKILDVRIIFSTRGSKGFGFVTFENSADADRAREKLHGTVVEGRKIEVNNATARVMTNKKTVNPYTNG

B1: AGCAUGU (DNA:RNA)
RNA: GGGAGACCGGAAUUCAGAUUGUCCAGCAUGUUUAAAUCCCGUCGUAGCCACCA
DNA 1: CAATCTGAATTCCGGTCTCCC
DNA 2: TGGTGGCTACGACGGGATT
B2: GUAGCGG (DNA:RNA)
RNA: B1 RNA with A25G, G26U, C27A, A28G, U29C, U31G
DNA 1: CAATCTGAATTCCGGTCTCCC
DNA 2: TGGTGGCTACGACGGGATT
B3: CCUCGCA (DNA:RNA)
RNA: GGGAGACCGGAAUUCAGAUUGUCCCCUCGCAUUAAAUCCCGUCGUAGCCACCA
DNA 1: CAATCTGAATTCCGGTCTCCC
DNA 2: TGGTGGCTACGACGGGATT
B4: UUCCUAC (DNA:RNA)
RNA: B1 RNA with A25U, G26U, A28C, G30A, U31C
DNA 1: CAATCTGAATTCCGGTCTCCC
DNA 2: TGGTGGCTACGACGGGATT
B5: ACCUGGA (DNA:RNA)
RNA: B1 RNA with G26C, A28U, U29G, U31A
DNA 1: CAATCTGAATTCCGGTCTCCC
DNA 2: TGGTGGCTACGACGGGATT
B6: UUGUUUU (DNA:RNA)
RNA: B1 RNA with A25U, G26U, C27G, A28U, G30U
DNA 1: CAATCTGAATTCCGGTCTCCC
DNA 2: TGGTGGCTACGACGGGATT
B7: CGAUAUA (DNA:RNA)
RNA: B3 RNA with C26G, U27A, C28U, G29A, C30U
DNA 1: CAATCTGAATTCCGGTCTCCC
DNA 2: TGGTGGCTACGACGGGATT
B8: UUCAAAA (DNA:RNA)
RNA: B1 RNA with A25U, G26U, U29A, G30A, U31A
DNA 1: CAATCTGAATTCCGGTCTCCC
DNA 2: TGGTGGCTACGACGGGATT
B9: AUCGGCC (DNA:RNA)
RNA: B1 RNA with G26U, A28G, U29G, G30C, U31C
DNA 1: CAATCTGAATTCCGGTCTCCC
DNA 2: TGGTGGCTACGACGGGATT

target: T1, RBFOX1 RRM RbFoxmut (Fox-RRM*); assay: EMSA; HiTS-Eq, 1 nM pool, 10 min; buffer printed only for the single-RNA assays: 10 mM Tris pH 7.5, 150 mM NaCl, 3.4 mM EDTA, 0.001% NP-40, 30 C; settings: tags: His6 N-terminal (pET28a); label: 5' 32P
Outline: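 These values rest on relative association constants, computed from read-count changes of each RNA species versus the control reaction and normalised to the cognate motif. Reads came from free RNA recovered by 8% native PAGE after purified RbFox RRM (wild type or mutant) at increasing concentrations was equilibrated for 10 min in 50 µL with 1 nM of a 5′-radiolabelled pool with 7 randomized nucleotides and DNA-annealed flanks.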

Row | Binder | binding signal
1 | B1 | 0.713 KA relative to UGCAUGU
2 | B2 | 0.0802 KA relative to UGCAUGU
3 | B3 | 0.122 KA relative to UGCAUGU
4 | B4 | 0.0836 KA relative to UGCAUGU
5 | B5 | 0.081 KA relative to UGCAUGU
6 | B6 | 0.0758 KA relative to UGCAUGU
7 | B7 | 0.104 KA relative to UGCAUGU
8 | B8 | 0.0808 KA relative to UGCAUGU
9 | B9 | 0.191 KA relative to UGCAUGU
